Out of some 310,000 compounds screened, about 14,000 (4.5%) showed an effect of 50% or more. Effects have a minus sign here. The list shows a part of the results.
Biological target: human ether-à-go-go-related gene (hERG) potassium channel (human, UniProt Q12809)
Assay: primary screen, population patch clamp on CHO cells stably expressing hERG
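Further: peak tail current of the secondary pulse compared with the same well before compound.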

Chain of human ether-à-go-go-related gene (hERG) potassium channel (Q12809 whole entry, looked up): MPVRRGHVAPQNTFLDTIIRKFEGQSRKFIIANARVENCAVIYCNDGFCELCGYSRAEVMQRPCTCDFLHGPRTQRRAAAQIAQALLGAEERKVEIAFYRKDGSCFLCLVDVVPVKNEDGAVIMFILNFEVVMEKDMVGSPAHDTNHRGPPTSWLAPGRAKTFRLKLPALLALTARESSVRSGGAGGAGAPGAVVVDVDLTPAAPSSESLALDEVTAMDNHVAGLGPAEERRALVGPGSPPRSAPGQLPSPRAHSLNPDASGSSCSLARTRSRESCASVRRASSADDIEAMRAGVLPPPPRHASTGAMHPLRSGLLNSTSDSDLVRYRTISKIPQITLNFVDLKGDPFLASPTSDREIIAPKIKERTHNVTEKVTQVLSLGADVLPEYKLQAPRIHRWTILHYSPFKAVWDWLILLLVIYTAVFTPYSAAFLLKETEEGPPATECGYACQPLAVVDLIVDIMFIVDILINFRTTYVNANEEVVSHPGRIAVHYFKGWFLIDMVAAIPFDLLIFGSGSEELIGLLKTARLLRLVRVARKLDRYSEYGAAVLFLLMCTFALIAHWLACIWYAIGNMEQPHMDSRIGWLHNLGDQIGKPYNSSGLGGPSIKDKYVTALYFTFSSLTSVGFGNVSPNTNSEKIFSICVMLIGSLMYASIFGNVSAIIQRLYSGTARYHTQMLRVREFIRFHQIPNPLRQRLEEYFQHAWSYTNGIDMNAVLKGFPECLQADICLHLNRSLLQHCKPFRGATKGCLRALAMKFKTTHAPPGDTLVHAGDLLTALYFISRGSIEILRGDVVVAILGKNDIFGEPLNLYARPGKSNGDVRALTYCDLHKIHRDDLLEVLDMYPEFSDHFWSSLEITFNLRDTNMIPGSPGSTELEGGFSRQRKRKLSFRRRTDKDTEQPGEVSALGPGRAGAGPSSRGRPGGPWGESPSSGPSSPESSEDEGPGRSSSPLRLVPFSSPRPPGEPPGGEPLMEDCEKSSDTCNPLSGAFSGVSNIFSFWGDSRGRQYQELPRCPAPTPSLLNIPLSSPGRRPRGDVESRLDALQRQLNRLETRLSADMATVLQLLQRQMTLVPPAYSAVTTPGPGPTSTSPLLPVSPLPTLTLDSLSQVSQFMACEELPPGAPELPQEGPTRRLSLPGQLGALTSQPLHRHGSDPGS

Point of comparison: `c1ccc(Cn2c(NCc3ccccn3)nc3ccccc32)cc1`, “hERG current change (%, negative = inhibition) at 10uM” value -39%. Against it:
- CSc1ccc(-c2nc(CN(C)C3CCOC3)c(C)o2)cc1 (stereo not shown) — higher, -31.4%
- CCCCNC(=O)/C=C1\Sc2ccccc2NC1=O — higher, 2.9%
- CCOP(=O)(c1ccc(N(C)C)cc1)C(O)c1ccc(OC)cc1 (stereo not shown) — higher, 6.28%
- COc1cccc(NS(=O)(=O)c2cc3c(cc2C)NC(=O)CO3)c1 — higher, -38.7%
- CCOC(=O)c1ccccc1NC(=O)CSc1nnc(Cc2cccn2C)n1-c1ccc(F)cc1 — higher, -24%
- FC(F)(F)c1cc(-c2ccco2)nc(NCc2ccccc2)n1 — higher, 0.0568%
- COCCNC(=O)C/C(C)=N/NC(=O)C(=O)NC1CCCCC1 — higher, -13.5%
- CCC(CC(C)(C)O)C(=O)NNC(=S)Nc1ccccc1 (stereo not shown) — higher, 5.73%
- c1csc(Cn2c(-c3cccs3)nc3ccccc32)c1 — lower, -68.6%
- CCCN1C(=O)c2cc(C(=O)Nc3ccc(OC)c(OC)c3)ccc2C1Nc1ccc(OC)c(OC)c1 (stereo not shown) — higher, 8.71%
- COc1ccccc1C(=O)NCCC(=O)NN1C(=O)NC2(CCCCC2)C1=O — higher, 37.3%
- Cc1ccc(OCCCCCCN2CCNCC2)cc1.O=C(O)C(=O)O — higher, -11.6%
- CCCN1CN(Cc2ccco2)c2nc3ccccc3n2C1 — lower, -48.8%
- COc1ccc(C(=O)NCCONC(=O)c2ccc(OC)cc2)cc1 — higher, -4.46%
- COc1cccc(CNC(=O)CCn2c(=O)oc3ccccc32)c1 — higher, -3.37%
- CC(=O)Nc1cc(C)c(S(C)(=O)=O)c(C)c1 — higher, 5%
- CCN1CCN(C(=O)COc2cc(=O)n(CC)c3ccccc23)CC1 — higher, -2.67%
- Cc1cc(=O)c2ccc(C(F)(F)F)cc2[nH]1 — higher, 15.4%
- O=C(CSc1nc2nc[nH]c2c(=O)[nH]1)NC1CCCCC1 — higher, 6.5%
- CC(C)CC(c1nnnn1Cc1ccc(F)cc1)N1CCC(C(N)=O)CC1 (stereo not shown) — higher, -7.55%
- COC(=O)CN1C(=O)CSc2ncccc21 — higher, 0.353%
- Cc1cc(Nc2nn(C)c(N)c2C#N)ccc1F — higher, -14.8%
- CN(C(=O)/C(N=Nc1cccc(C(F)(F)F)c1)=C(\O)C(F)(F)F)c1ccccc1 — higher, 8.8%
- CCC(C)N(C)C1CCN(C(=S)Nc2cccc(OC)c2)CC1 (stereo not shown) — higher, 8.14%
- O=C(Nc1ccccc1F)NC1CCCc2ccccc21 (stereo not shown) — higher, -0.51%
- CC(=O)N(CCN(C)C)c1nc2cc3c(cc2s1)OCCO3.Cl — higher, 10.6%
- Cc1ccn2c(CNCC3COCCO3)c(C(=O)N3CCCCCC3)nc2c1 (stereo not shown) — higher, 7.77%
- COc1ccccc1CCC(=O)N1CCC(n2nccc2NC(=O)C2CCOC2)CC1 (stereo not shown) — higher, 23.1%
- O=C(Cc1ccccc1)NCc1n[nH]c(=S)n1-c1ccccc1 — higher, 21.2%
- COc1ccc(/C=N/NC(=O)CN2CCCc3ccccc32)c(OC)c1 — higher, 2.09%
- COc1cc(NC2c3ccccc3C(=O)N2Cc2ccccc2Cl)cc(OC)c1 (stereo not shown) — higher, -22.2%
- CCCn1c(C(=O)c2ccc(OC)cc2)nc2ccccc21 — higher, 5.03%
- COc1ccc(/C=C/C(=O)NC2CCN(Cc3ccccc3)CC2)cc1OC — higher, -29%
- CCOC(=O)C(CC)n1cnc2c(nnn2-c2cccc(OC)c2)c1=O (stereo not shown) — higher, 12.9%
- Cc1nn(C)c(C(=O)N2CCc3ccccc32)c1Br — higher, -3.6%
- COc1ccc(/C=N/NC(=O)c2ccco2)cc1COc1ccc(F)cc1 — higher, 10.5%
- CCn1c(C)c(C(C)=O)c(SC)nc1=S — higher, -4.98%
- CCc1cccc(OCC(O)Cn2c(N3CCCCC3)nc3c2c(=O)[nH]c(=O)n3C)c1 (stereo not shown) — higher, 13.7%
- CCCc1cc(=O)[nH]c(SCC(=O)N(CC(C)C)C2CCS(=O)(=O)C2)n1 (stereo not shown) — higher, 3.01%
- CCOc1ccc2ccccc2c1/C=N/NC(=O)CNC(=O)C(c1ccccc1)c1ccccc1 — higher, 15.3%
- CC1CCN(S(=O)(=O)c2ccc3c4c2CC(=O)N4CC(C)S3)CC1 (stereo not shown) — higher, 7.22%
- COc1ccc(C2C(C(N)=O)=C(C)Nc3nc(-c4ccccc4Cl)nn32)c(OC)c1 (stereo not shown) — higher, -12.9%
- Cc1c(C#N)c2ccccc2n1CC(=O)O — higher, 5.22%
- Cc1ccc(C(=O)NCCC2=CCCCC2)cc1S(=O)(=O)N1CCCCC1 — higher, -31.8%
- CC(NC(=O)c1ccc2c(c1)C(=O)N(Cc1cccnc1)C2=O)c1ccccc1 (stereo not shown) — higher, 5.7%
- CC(C)c1nnc(NC(=O)CCC(=O)NC2CCCCCCC2)s1 — higher, -7.17%
- CN(C)c1ccc(NC(=O)c2ccc([N+](=O)[O-])cc2Cl)cc1 — higher, -19.9%
- CCCc1cc(=O)[nH]c2nnc(SCC(=O)N3CC(C)OC(C)C3)n12 (stereo not shown) — higher, 19%
- CCN(CC)CCCNC(=O)Cn1ncn2cccc2c1=O — higher, 21%
- COc1ccccc1Nc1ccc(C(=O)NCc2cccs2)cn1 — higher, -2.73%
- CC(C)(C)/C(O)=C/c1nc2ccccc2oc1=O — higher, 13.6%
- C=CCCC(=O)N1CCCC(C(=O)c2cccc(OC)c2)C1 (stereo not shown) — higher, -12.5%
- CCc1ccc(NC(=O)c2noc3c2CCC3)cc1 — higher, 1.3%
- O=C(COC(=O)C1CCN(c2ccc(C(F)(F)F)cn2)CC1)NC1CCCCC1 — higher, -6.51%
- O=C(Nc1cscc1S(=O)(=O)c1ccc(Cl)cc1)c1ccccc1Cl — higher, -0.486%
- COc1ccccc1N1CCN(C(c2ccc(N(C)C)cc2)c2nnnn2CCc2ccccc2)CC1 (stereo not shown) — higher, 7.71%
- C=CCn1c(-c2ccoc2)n[nH]c1=S — higher, 18.5%
- COc1ccc2cc(C(=O)O)n(CC(=O)c3ccccc3)c2c1 — higher, 16.9%
- Cn1nnnc1SCC(=O)N1CCCc2ccccc21 — higher, 7.41%
- O=C(Cn1c(=S)[nH]c2ccccc21)c1ccccc1 — higher, 14.4%
- CCCCC(CCC(=O)O)(C(=O)OCC)c1csc(Nc2ccccc2)n1 (stereo not shown) — higher, 5.77%
- Cc1nc(C(=O)N(C)C)nn1-c1cc(Cl)ccc1Cl — higher, 12.8%
- CCOC(=O)c1[nH]c2ccc(OC)cc2c1NC(=O)c1ccccc1C(=O)O — higher, 14.2%
- Cc1cccc(C(=O)OCC(=O)NCCCc2ccccc2)c1 — higher, 14.3%
- COCC(=O)Nc1ccc2nc3n(c(=O)c2c1)CCCCC3 — higher, -2.98%
- CC(C)(C)c1cc(C(=O)NCC(=O)OCC(=O)c2cccc([N+](=O)[O-])c2)cc(C(C)(C)C)c1 — higher, 2.91%
- O=C(Nc1cc(Cl)ccn1)C1(c2ccccc2)CC1(Cl)Cl (stereo not shown) — higher, 12.7%
- CC1(C)CC(O)C(C(O)c2cccc([N+](=O)[O-])c2)C(C)(C)N1 (stereo not shown) — higher, 30.1%
- Clc1cccc(Cl)c1OCCCCN1CCCCC1.O=C(O)C(=O)O — lower, -40.8%
- O=C(COC(=O)C1CC1)Nc1ccc(Oc2ccccc2)cc1 — higher, -29%
- CNC(=O)c1cccc2cccc(Sc3ccccc3C(=O)O)c12 — higher, 13.7%
- Cc1ccccc1NC(=O)C1C2C=CC(C3CC23)C1C(=O)O (stereo not shown) — higher, 19.2%
- COc1ccc(-c2c(-c3cc(OC)cc(OC)c3)n(C)c3ccc(-c4ccn[nH]4)cc23)cc1 — higher, -0.287%
- COc1ccc(NC(=O)c2nc[nH]c2C(=O)NCCCCCNC(=O)OC(C)(C)C)cc1 — higher, 27.3%
- O=C(c1cccc(N2C(=O)C3C4C=CC(C4)C3C2=O)c1)N1CCN(c2ccccc2Cl)CC1 (stereo not shown) — higher, -13.8%
- CC1=C(C#N)CCC(=O)N1Cc1c(C)cc(C)cc1C — higher, 7.22%
- Cc1ccc(C(C)n2cc(C(=O)NCc3cccnc3)nn2)cc1 (stereo not shown) — higher, -6.78%
- CC(C)n1c(/C=C/c2ccccc2)nc2ccccc21 — higher, -7.87%
- CC(=O)c1c(C)n(-c2ccccc2Br)c2ccc(O)cc12 — higher, 19.4%
- CC(=O)Oc1ccc(C(=O)OCC(=O)c2c(N)n(C)c(=O)n(C)c2=O)cc1OC(C)=O — higher, 45%
- c1ccc(-c2ccc3c(c2)NC(C2Nc4cc(-c5ccccc5)ccc4O2)O3)cc1 (stereo not shown) — higher, 7.08%
- O=C(/C=C/c1ccco1)c1ccc(O)cc1 — higher, -12.1%
- CCOC(=O)CCc1c(C)nc2cc(C3CCCN(C(=O)OC(C)(C)C)C3)[nH]n2c1=O (stereo not shown) — higher, -7.68%
- O=C(/C=C/c1ccc(F)cc1)Nc1cc(S(=O)(=O)N2CCOCC2)ccc1N1CCCC1 — lower, -70.9%
- O=C(Nc1ccc(Oc2ccccc2)nc1)C1CCN(Cc2ccccc2)CC1 — lower, -54.9%
- S=C(NCCCN1CCOCC1)NC1CCCC1 — higher, 8.32%
- Cc1ccc(C(=O)/C=C\NCc2ccccc2)cc1 — higher, -1.88%
- C#CCOCCOCCOCCNc1nc(N2CCN(C(=O)[C@H](C)n3cc(CCC[NH+]=C(N)N)nn3)CC2)nc(N2CCN(C(=O)[C@H](Cc3ccc(O)cc3)n3cc(CCO)nn3)CC2)n1.[Cl-] — higher, 14.3%
- CCCc1nnc(NC(=O)CCC(=O)Nc2ccc(Cl)cc2)s1 — higher, 18.1%
- CN(C)/C=N/c1c(C#N)cnn1-c1ccccc1 — higher, -1.03%

Source: paper PMC4336329 (PLoS ONE, 2015)
